Source: paper PMC6919601, “Identification of Plasmodium dipeptidyl aminopeptidase allosteric inhibitors by high throughput screening” (PLoS ONE, 2019)
The whole screen tested about 110,000 compounds, of which about 230 (0.21%) showed an effect of 50% or more. The list shows a part of the results.

molecular target: DPAP1 (Plasmodium falciparum, UniProt Q8IIJ9); test: primary screen, percent inhibition; read by cleavage of a fluorogenic dipeptide substrate; higher = more effect of the substance; design: species or system P. falciparum D10 trophozoite lysates; single well
Sequence (Q8IIJ9 whole entry, looked up): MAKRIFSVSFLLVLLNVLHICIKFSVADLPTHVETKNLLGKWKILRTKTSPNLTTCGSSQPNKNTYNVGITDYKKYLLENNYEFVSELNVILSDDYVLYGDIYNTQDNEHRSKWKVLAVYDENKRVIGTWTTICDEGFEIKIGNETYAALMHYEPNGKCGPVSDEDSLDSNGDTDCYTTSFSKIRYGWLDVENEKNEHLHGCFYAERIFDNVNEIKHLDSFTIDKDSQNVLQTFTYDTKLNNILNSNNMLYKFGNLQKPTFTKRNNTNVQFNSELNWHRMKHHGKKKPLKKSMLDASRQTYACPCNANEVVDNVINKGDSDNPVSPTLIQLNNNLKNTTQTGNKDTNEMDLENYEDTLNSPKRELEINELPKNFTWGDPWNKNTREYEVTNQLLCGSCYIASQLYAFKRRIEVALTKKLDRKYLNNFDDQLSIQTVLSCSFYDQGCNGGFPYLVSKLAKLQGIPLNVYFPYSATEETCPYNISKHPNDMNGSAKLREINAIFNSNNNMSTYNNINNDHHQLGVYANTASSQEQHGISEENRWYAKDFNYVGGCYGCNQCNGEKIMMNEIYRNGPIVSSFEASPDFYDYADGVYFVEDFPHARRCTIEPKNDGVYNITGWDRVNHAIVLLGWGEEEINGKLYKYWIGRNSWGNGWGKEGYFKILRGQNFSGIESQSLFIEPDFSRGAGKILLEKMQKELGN
Procedure: HTS was performed in black 384-well plates. The first and last two columns of each plate contained our negative (DMSO) and positive (10 μM JCP410) controls, and the 20 central columns the test compounds at 10 μM. Compounds were first diluted 50-fold into assay buffer (50 mM sodium acetate, 5 mM MgCl2, 10 mM β-mercaptoethanol, and 0.1% CHAPS, pH 5.5) from a 10 mM DMSO stock plates. One microliter of this 200 μM intermediate stock plate was dispensed into the assay plate. […] After 30 min, the reaction was quenched with 20 μL of 0.5 M acetic acid, and the fluorescent intensity measured at 523 nm (λex = 492 nm) using an Analyst HT multimode plate reader (Molecular Devices).
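Also: 30 min substrate incubation versus DMSO and 10 µM JCP410 controls.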

| Compound | % Inhibition @ 10 uM [%] |
| --- | --- |
| COc1ccc(-c2noc(-c3nnn(-c4cccc(Cl)c4)c3N)n2)cc1 | 4.23 |
| COc1cc(OC)cc(C(=O)Nc2c(F)cccc2F)c1 | -0.171 |
| CCOC(=O)CN(C)Cc1c(F)cccc1Cl | -6 |
| CC1=C(C#N)C(=O)N(CCc2ccccc2)C(=O)/C1=C/c1ccc(-c2ccc3c(c2)COC3=O)o1 | 0.884 |
| CCOC(=O)C1=C(C)N(C)C(=S)NC1c1ccc(Cl)cc1 (stereo not shown) | -2.13 |
| Cc1ccc(S(=O)(=O)Nc2cccc(Cl)c2)cc1C(N)=O | -4.18 |
| CC(C)(C)c1[nH]nc2c1C(c1ccc(OCC(N)=O)cc1)C(C#N)=C(N)O2 (stereo not shown) | 0.746 |
| C=CCOc1ccc(-c2nc(O)c3c4c(sc3n2)CCCC4)cc1OC | 1.96 |
| COC(=O)c1nnn(-c2cccc(Cl)c2C)c1C(=O)OC | 6.59 |
| CCOc1cc(-c2nnc3[nH]c(=O)n(C)c(=O)c3n2)ccc1OC(C)C | -6.5 |
| COc1ccc(-c2noc(CCC(=O)NCCN(C)Cc3ccccc3)n2)cc1 | -2.7 |
| CC(C)(C)NC(=O)/C=C/c1ccccc1Cl | -0.414 |
| Cc1cc(C)c(S(=O)(=O)Nc2cccc(Cl)c2Cl)c(C)c1 | 2.01 |
| CC(C)CCNC(=O)c1cnn(C(C)(C)C)c1C1CCN(C(=O)OC(C)(C)C)CC1 | 2.27 |
| O=C1CCCC2=C1C(c1ccccc1)C1C(=O)c3ccccc3C1=N2 (stereo not shown) | 3.17 |
| CC1CN(Cc2ccc(C(F)(F)F)cc2)CC(C)O1 (stereo not shown) | 4.22 |
| COc1ccc(CNC(=O)c2ccc(Cl)cc2)cc1 | 1.74 |
| Cc1ccc(-n2ncc3c(=O)n(CC(=O)c4ccccc4)cnc32)cc1C | 3.24 |
| COc1cc(OC)c(OC)cc1/C=C1\SC(N2CCCCC2)=NC1=O | -1.02 |
| CCOC(=O)c1c(C)n2c3c(cccc13)CCC2 | 2.62 |
| C=CCNC(=O)CSc1nc(C)c(C)c(C)c1C#N | 2.99 |
| COc1ccc2c(CNCc3ccc4c(c3)OCO4)c(C(=O)O)n(C)c2c1 | 1.76 |

| Compound | % Inhibition @ 10 uM [%] |
| --- | --- |
| CCCOc1ccccc1/C=C/c1[nH]c(=O)[nH]c(=O)c1[N+](=O)[O-] | -4.21 |
| O=C(CCNc1cc(Cl)cc(Cl)c1)c1ccco1 | -1.32 |
| Cc1ccc(Cl)cc1N(CC(=O)Nc1ccc(C(C)C)cc1)S(C)(=O)=O | -4.13 |
| c1ccc(C(c2ccccc2)c2nc3ccccc3[nH]2)cc1 | -9.29 |
| CCOC(=O)c1c(NC(=O)CSc2nnc3cc(C)c4ccccc4n23)sc(C)c1C | 21.3 |
| Cc1ccc2nc3c(cc(C#N)c(=O)n3Cc3cccnc3)c(=O)n2c1 | -5.92 |
| CCN(CC)CCCCOc1ccccc1[N+](=O)[O-] | -3.42 |
| CNC(=O)c1c(NC(=O)c2cccs2)sc2c1CCCC2 | 24.4 |
| C=C(C)[C@@H]1CC=C(CN2CCN(c3ccc(F)cc3)CC2)CC1 | 6.06 |
| CC(=O)c1cccc(NC(=O)CN2C(=O)c3cccc4cccc2c34)c1 | -4.16 |
| CCN(CC)CCCOc1ccc(Cl)cc1 | -2.54 |
| COc1ccc(CN2CC(C)CC(C)C2)c(C)c1C (stereo not shown) | 4.75 |
| Cn1nc(-c2ccc(Cl)cc2)c2cc(C(=O)NCC3CCCO3)sc21 (stereo not shown) | 2.14 |
| N=C1/C(=C\c2ccc(Sc3ccc(Cl)cc3)o2)C(=O)N=C2SC(N3CCOCC3)=NN12 | 0.0579 |
| Cc1cc(C)c(NS(=O)(=O)c2ccc(NC(=O)c3ccco3)cc2)c(C)c1 | 0.658 |
| CCCCNC(=O)c1onc(C)c1Cl | -0.22 |
| CC12C(=O)N(c3ccccc3)C(=O)C1C1C=CC2C1 (stereo not shown) | 1.34 |
| O=C(COc1ccc(S(=O)(=O)NCc2ccccc2)cc1Cl)N1CCCC1 | -5.35 |
| CCc1cc2c(N3CCCCC3)ncnc2s1 | -2.42 |
| N#CCNC(=O)[C@H](CC1CCCCC1)OC(=O)N1CCOCC1 | -3.69 |
| Cc1c2cnn(CC(=O)N3CCC(C(N)=O)CC3)c(=O)c2c(C)n1Cc1ccccc1 | -0.447 |
| CCCn1c(C(O)c2ccc(OC)cc2)nc2ccccc21 (stereo not shown) | -3.14 |

| Compound | % Inhibition @ 10 uM [%] |
| --- | --- |
| O=C1NC(=O)/C(=C\c2ccc(C(F)(F)F)cc2)N1 | 1.52 |
| CCOC(=O)c1c(NC(=O)Nc2ccccc2)sc2c1CCCC2 | 4.93 |
| CC1CC(C)CN(C(=O)/C(=C/c2ccco2)NC(=O)c2ccccc2)C1 (stereo not shown) | -2.8 |
| O=C(Cn1cnc2c(nnn2-c2ccc(F)cc2)c1=O)NCc1ccccc1Cl | 1.24 |
| N#C/C(=C\c1c(Oc2ccc(F)cc2)nc2ccccn2c1=O)C(=O)NC1CCS(=O)(=O)C1 (stereo not shown) | 2.16 |
| COc1cc(/C=C2\NC(=O)N(Cc3ccc(Cl)cc3)C2=O)cc(OC)c1O | 2.17 |
| O=c1oc(-c2cccs2)cc(-c2ccccc2)c1-c1ccccc1 | -0.357 |
| CC(=O)Nc1ccc(C(=O)Nc2cccc(NC(=O)c3ccco3)c2)cc1 | 4.11 |
| Cn1nnnc1SCCCNCc1ccc(-c2ccc(Cl)cc2)o1 | 0.596 |
| CC1=C(C(=O)Nc2ccc(F)cc2F)C(c2cccnc2)C2=C(O)CC(c3ccccc3)CC2=N1 (stereo not shown) | -0.0959 |
| O=C(COc1ccccc1Cl)N[C@H]1CCCC[C@@H]1NC(=O)COc1ccccc1Cl | 2.39 |
| Cc1ccsc1C1C(C#N)=C(N)OC2=C1C(=O)CC(C)(C)C2 (stereo not shown) | -3.46 |
| COc1ccc2c(c1)C(=NNC(N)=S)c1cc(OC)ccc1-2 | 2.92 |
| CCN(CC)C(=O)C1CCCN(Cc2ccccc2Cl)C1 (stereo not shown) | -1.77 |
| CN(C(=O)C1CCN(c2ncnc3c2nc2n3CCCCC2)CC1)C1CCCCC1 | 6.14 |
| O=c1oc2cc(OCCc3ccccc3)ccc2c2c1CCC2 | -1.6 |
| O=C1/C(=C/c2cn(Cc3ccccc3Cl)c3ccccc23)Sc2ccccc21 | -5.28 |
| Fc1cc(F)c(F)c(-n2ncc3c2ncn2nc(COc4ccc(Cl)cc4)nc32)c1F | -1.11 |
| C(=C\c1ccccc1)/CNCCSc1nnnn1-c1ccccc1 | -3.08 |
| CC(=O)c1ccc(NC(=O)c2sc3nc4ccccc4cc3c2N)cc1 | 16.3 |
